We go through ten compounds from US9677112B2 (priority 2012, dated 2017).

Values joined by “and” are separate entries in the source; they are usually repeats but may differ in a detail not shown here. Equal entries are not always repeated. Where two headings read alike, the source gives them in different places.

For one data set, the target named is TEM-1 Bla (Escherichia coli, UniProt P62593). The conditions noted are these: for Km: read-out: TEM-1 Bla Km, PBS buffer (1x, pH = 7.4), 22° C. The text has this:
The kinetic parameters of fluorescent probes BlaC and TEM-1 Bla, including catalytic constant kcat and Michaelis constant Km, are obtained from Linweaver-Burk plots (FIGS. 7A-7C) and summarized in Table 1.
All chemicals were purchased from commercial sources (e.g., Aldrich, Fluka, ANASPEC, and Novabiochem). 7-Amino-3-chloromethyl 3-cephem-4-carboxylic acid diphenylmethyl ester hydrochloride (ACLH) was obtained from Otsuka Chemical Co., Ltd. The purified TEM-1 β-lactamase was customarily prepared by the Biologics Process Development, Inc. (San Diego, Calif.). Analytical TLC was performed with 0.25 mm silica gel 60F plates with fluorescent indicator (254 nm). Plates were visualized by ultraviolet light. ^1H and ^13C NMR spectra were taken on Varian 300 MHz or 400 MHz magnetic resonance spectrometer. Data for ^1H NMR spectra are reported as chemical shifts reported as δ in units of parts per million (ppm) relative to chloroform-d (δ 7.26, s); multiplicities are reported as s (singlet), d (doublet), t (triplet), q (quartet), dd (doublet of doublets), m (multiplet), or br (broadened); coupling constants are reported as a J value in Hertz (Hz); the number of protons (n) for a given resonance is indicated nH, and based on the spectral integration values.
The following procedure was used for determining the hydrolytic kinetics of the probes by beta-lactamase. To a series of different concentrations of the probe (20, 40, 60, 80, 100, 120, 150 μM) in 1× phosphate-buffered saline (PBS, pH 7.4; 100 μL) in a 96-well plate (black and flat bottom) was added TEM-1 Bla or BlaC in PBS. The fluorescence intensity at 454 nm was immediately measured in a microplate reader (excitation wavelength: 400 nm) over a 20-minute period at 25° C. The values of the kinetic parameters (Km and kcat) were determined from the double-reciprocal plot of the hydrolysis rate versus substrate concentration (Lineweaver-Burk plot). To determine the spontaneous hydrolysis rate of the probes, the fluorescence intensity was monitored over 5 days without the addition of the enzyme. The rate was calculated from the plot of ln([S]0/([S]0−[P])) versus time (FIG. 8C).

Data set [1] is described as follows: Spontaneous hydrolysis of probes in buffer. In kind it is physicochemical. The conditions noted are these: 22° C.
Data set [2] concerns COc1ccc(-c2c3ccc(=O)cc-3oc3cc(OCc4ccc(OCC5=C(C(=O)O)N6C(=O)[C@@H](NC(=O)Cc7ccccc7)[C@H]6SC5)cc4)ccc23)c(C)c1. As to the kind of experiment: purified protein, by the assay type. The conditions noted are these: 22° C.
Data set [3] relates to O=C(Cc1ccccc1)N[C@@H]1C(=O)N2C(C(=O)O)=C(COc3ccc4ccc(=O)oc4c3)C[S@+]([O-])[C@H]12. The data set can be described thus: purified protein, by the assay type. The conditions noted are these: other: PBS buffer (1x, pH = 7.4), 22° C., pH 7.4.
Data set [4] relates to COc1ccc(-c2c3ccc(=O)cc-3oc3cc(OCc4ccc(OCC5=C(C(=O)O)N6C(=O)[C@](NC(=O)Cc7ccccc7)(OC)[C@H]6SC5)cc4)ccc23)c(C)c1. As to the kind of experiment: purified protein, by the assay type. The conditions noted are these: 22° C.
The mark [5] stands for this setting: other: MES buffer (0.1M, pH 6.6), pH 6.6.
Setting [6] is: other: PBS buffer (1x, pH = 7.4), pH 7.4.

Sequence of TEM-1 Bla (P62593 24-286 limits assumed): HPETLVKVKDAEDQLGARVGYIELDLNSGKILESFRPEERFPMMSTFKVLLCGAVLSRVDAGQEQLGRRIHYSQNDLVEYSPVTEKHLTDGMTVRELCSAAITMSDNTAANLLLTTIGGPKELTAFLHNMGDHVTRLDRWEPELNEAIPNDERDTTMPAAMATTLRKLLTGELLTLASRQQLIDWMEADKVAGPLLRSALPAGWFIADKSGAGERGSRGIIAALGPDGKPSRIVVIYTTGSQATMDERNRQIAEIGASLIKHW

On to `O=C(Cc1ccccc1)N[C@@H]1C(=O)N2C(C(=O)O)=C(COc3ccc4ccc(=O)oc4c3)CS[C@H]12` [CDC-1, (6R,7R)-8-Oxo-3-((2-oxo-2H-chromen-7-yloxy)methyl)-7-(2-phenylacetamido)-5-thia-1-azabicyclo[4.2.0]oct-2-ene-2-carboxylic acid], for which, at TEM-1 Bla, the “TEM-1 Bla kcat” value is 48 s⁻¹ and the Km is 135 µM. In addition, the “Spontaneous Hydrolysis Rate” value in data set [1] (PBS buffer (1x, pH = 7.4)) came to 2e-07 s⁻¹.

`O=C(Cc1ccccc1)N[C@@H]1C(=O)N2C(C(=O)O)=C(COc3ccc4ccc(=O)oc4c3)C[S@+]([O-])[C@H]12` [CDC-2, (5S,6R,7R)-8-Oxo-3-(((2-oxo-2H-chromen-7-yl)oxy)methyl)-7-(2-phenylacetamido)-5-thia-1-azabicyclo[4.2.0]oct-2-ene-2-carboxylic acid 5-oxide]: the “Spontaneous Hydrolysis Rate” value in data set [1] (PBS buffer (1x, pH = 7.4)) was determined as 1e-07 s⁻¹.

As to `CCN1CCN(C(=O)N[C@@H](C(=O)N[C@@H]2C(=O)N3C(C(=O)O)=C(COc4ccc5ccc(=O)oc5c4)CS[C@H]23)c2ccccc2)C(=O)C1=O` [CDC-3, (6R,7R)-7-((R)-2-(4-Ethyl-2,3-dioxopiperazine-1-carboxamido)-2-phenylacetamido)-8-oxo-3-((2-oxo-2H-chromen-7-yloxy)methyl)-5-thia-1-azabicyclo[4.2.0]oct-2-ene-2-carboxylic acid], at TEM-1 Bla, the “TEM-1 Bla kcat” value came to 77 s⁻¹ and the Km was found to be 59 µM. Also, the “Spontaneous Hydrolysis Rate” value in data set [1] (PBS buffer (1x, pH = 7.4)) amounted to 2e-07 s⁻¹.

Regarding `CC(=O)N[C@@H]1C(=O)N2C(C(=O)O)=C(COc3ccc4ccc(=O)oc4c3)CS[C@H]12` [CDC-4, (6R,7R)-7-Acetamido-8-oxo-3-(((2-oxo-2H-chromen-7-yl)oxy)methyl)-5-thia-1-azabicyclo[4.2.0]oct-2-ene-2-carboxylic acid], on TEM-1 Bla, the “TEM-1 Bla kcat” value was 10 s⁻¹ and the Km came to 133 µM. In addition, the “Spontaneous Hydrolysis Rate” value in data set [1] (PBS buffer (1x, pH = 7.4)) came out at 2e-07 s⁻¹.

For the compound `CO[C@@]1(NC(C)=O)C(=O)N2C(C(=O)O)=C(COc3ccc4ccc(=O)oc4c3)CS[C@@H]21` [CDC-5, (6R,7S)-7-Acetamido-7-methoxy-8-oxo-3-(((2-oxo-2H-chromen-7-yl)oxy)methyl)-5-thia-1-azabicyclo[4.2.0]oct-2-ene-2-carboxylic acid], in data set [1] (PBS buffer (1x, pH = 7.4)), the “Spontaneous Hydrolysis Rate” value worked out at 3e-07 s⁻¹.

For the compound `CCO[C@@]1(NC(=O)Cc2ccccc2)C(=O)N2C(C(=O)O)=C(COc3ccc4ccc(=O)oc4c3)CS[C@@H]21` [CDC-OEt, (6R,7S)-7-Ethoxy-8-oxo-3-((2-oxo-2H-chromen-7-yloxy)methyl)-7-(2-phenylacetamido)-5-thia-1-azabicyclo[4.2.0]oct-2-ene-2-carboxylic acid], the “Spontaneous Hydrolysis Rate” value in data set [1] (PBS buffer (1x, pH = 7.4)) amounted to 2e-07 s⁻¹.

Regarding `CO[C@@]1(NC(=O)Cc2ccccc2)C(=O)N2C(C(=O)O)=C(COc3ccc4ccc(=O)oc4c3)CS[C@@H]21` [CDC-OMe, (6R,7S)-7-Methoxy-8-oxo-3-((2-oxo-2H-chromen-7-yloxy)methyl)-7-(2-phenylacetamido)-5-thia-1-azabicyclo[4.2.0]oct-2-ene-2-carboxylic acid], at TEM-1 Bla, the “TEM-1 Bla kcat” value was determined as 0.00076 s⁻¹ and the Km came out at 50 µM. In data set [1] (PBS buffer (1x, pH = 7.4)), the “Spontaneous Hydrolysis Rate” value was 3.3e-07 s⁻¹ and 3e-07 s⁻¹.

As to `COc1ccc(-c2c3ccc(=O)cc-3oc3cc(OCc4ccc(OCC5=C(C(=O)O)N6C(=O)[C@@H](NC(=O)Cc7ccccc7)[C@H]6SC5)cc4)ccc23)c(C)c1` [CDG-1, (6R,7R)-3-((4-(((9-(4-Methoxy-2-methylphenyl)-3-oxo-3H-xanthen-6-yl)oxy)methyl)phenoxy)methyl)-8-oxo-7-(2-phenylacetamido)-5-thia-1-azabicyclo[4.2.0]oct-2-ene-2-carboxylic acid], the “TEM-1 Bla kcat” value on TEM-1 Bla (pH 6.6) is “(5.2) s^−1”. Moreover, the “Spontaneous Hydrolysis Rate” value in data set [1] (MES buffer (0.1M, pH 6.6)) is “(6 × 10^−7)^c s^−1”; in data set [1] (PBS buffer (1x, pH = 7.4)), 3e-07 s⁻¹.

Take `COc1ccc(-c2c3ccc(=O)cc-3oc3cc(OCc4ccc(OCC5=C(C(=O)O)N6C(=O)[C@](NC(=O)Cc7ccccc7)(OC)[C@H]6SC5)cc4)ccc23)c(C)c1` [CDG-OMe, (6R,7S)-7-Methoxy-3-((4-(((9-(4-methoxy-2-methylphenyl)-3-oxo-3H-xanthen-6-yl)oxy)methyl)phenoxy)methyl)-8-oxo-7-(2-phenylacetamido)-5-thia-1-azabicyclo[4.2.0]oct-2-ene-2-carboxylic acid]: at TEM-1 Bla (pH 6.6), the “TEM-1 Bla kcat” value is “(6.7 × 10^−4) s^−1”. Besides, the “Spontaneous Hydrolysis Rate” value is “(2 × 10^−7)^c s^−1” in data set [1] (MES buffer (0.1M, pH 6.6)) and 3e-07 s⁻¹ in data set [1] (PBS buffer (1x, pH = 7.4)).

Regarding TEM-1 Bla (Escherichia coli), the Michaelis-Menten constant (Km) entry in data set [2] (setting [5]) was “(1.9) μM”; in data set [2] (setting [6]), 1.0 µM; in data set [3], 454 µM; in data set [4] (setting [5]) it was “(40) μM”; in data set [4] (setting [6]) it was 30 µM. Also, the kcat/Km is on record as 2.7 × 10^6 s^−1M^−1 in data set [2] (setting [5]), 8.7 × 10^6 s^−1M^−1 in data set [2] (setting [6]), 1.5 × 10^4 s^−1M^−1 in data set [3] and 37 s^−1M^−1 in data set [4] (setting [6]). In addition, the kcat in data set [2] (setting [6]) was determined as 8.7 s⁻¹; in data set [3], 7 s⁻¹; in data set [4] (setting [6]) it was 0.0011 s⁻¹.

For orientation: Km means the substrate concentration at which the rate is half of its maximum. As usually defined, the kcat is the number of substrate molecules converted per active site and unit of time at saturation.
